Assay results as given in the supplement of paper PMC12009370.
The other results are listed elsewhere or left out. Many values rest on one well or one pass, so single values are uncertain.

Key:
IMR-32 [1] = assay: drug sensitivity score (DSS), single drug with vehicle (DSS (score)); higher = more cytotoxic; extreme values may be limits of the assay; conditions: 72 h; co-treatment: vehicle (DMSO)
SK-N-AS [2] = assay: as above; conditions: 72 h; co-treatment: vehicle (DMSO)
SK-N-AS [3] = assay: drug sensitivity score (DSS) in combination with SL-176 (DSS (score)); higher = more cytotoxic; extreme values may be limits of the assay; conditions: 72 h; co-treatment: SL-176 11.2 uM (IC25 in IMR-32)
IMR-32 [4] = assay: as above; conditions: 72 h; co-treatment: SL-176 11.2 uM (IC25 in IMR-32)
SK-N-AS [5] = assay: drug sensitivity score (DSS) in combination with GSK2830371 (DSS (score)); neuroblastoma lines; SL-176 and GSK2830371 are WIP1 inhibitors; higher = more cytotoxic; extreme values may be limits of the assay; conditions: 72 h; co-treatment: GSK2830371 at IC25 in IMR-32
IMR-32 [6] = assay: as above; conditions: 72 h; co-treatment: GSK2830371 at IC25 in IMR-32
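Wherever drug sensitivity score (DSS) in combination with GSK2830371 is given: neuroblastoma cells in 384-well plates, each compound at five concentrations, luminescence read-out, DSS derived from fitted concentration-response curve combining IC50 with minimum and maximum inhibition.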
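Wherever drug sensitivity score (DSS) in combination with SL-176 is given: cells in 384-well plates, luminescence read-out, each screening drug at five concentrations, DSS derived from the fitted concentration-response curve combining IC50 with minimum and maximum inhibition.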
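Wherever drug sensitivity score (DSS), single drug with vehicle is given: 384-well screen with five concentrations per compound and a luminescence read-out, DSS computed from the fitted dose-response curve combining IC50 with minimum and maximum inhibition.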

| SMILES | drug sensitivity score (IMR-32 [1]) | drug sensitivity score (SK-N-AS [2]) | drug sensitivity score (SK-N-AS [3]) | drug sensitivity score (IMR-32 [4]) | drug sensitivity score (SK-N-AS [5]) | drug sensitivity score (IMR-32 [6]) |
| --- | --- | --- | --- | --- | --- | --- |
| Cc1cnc(Nc2ccc(OCCN3CCCC3)cc2)nc1Nc1cccc(S(=O)(=O)NC(C)(C)C)c1 [Fedratinib] | 8.5 | 7 | 6.7 | 8.6 | 8 | 7.7 |
| CN(C)C(=O)c1ccc(S(=O)(=O)c2ccc(NC(=O)[C@@](C)(O)C(F)(F)F)c(Cl)c2)cc1 | 0 | 0 | 0 | 0 | 0 | 0.2 |
| CO[C@H]1C[C@@H]2CC[C@@H](C)[C@@](O)(O2)C(=O)C(=O)N2CCCC[C@H]2C(=O)O[C@H]([C@H](C)C[C@@H]2CC[C@@H](O)[C@H](OC)C2)CC(=O)[C@H](C)/C=C(\C)[C@@H](O)[C@@H](OC)C(=O)[C@H](C)C[C@H](C)/C=C/C=C/C=C/1C [Sirolimus] | 13.7 | 6 | 5.7 | 3.2 | 7.2 | 6.5 |
| C=CC(=O)N1CCC(Oc2cc3c(Nc4ccc(Cl)c(Cl)c4F)ncnc3cc2OC)CC1 [Poziotinib] | 0.5 | 0 | 0 | 0 | 0 | 0 |
| COc1ccc(CCc2nc3cc(-c4c(C)noc4C)ccc3n2C[C@H](C)N2CCOCC2)cc1Cl | 5.8 | 3.5 | 3.8 | 7.5 | 3.9 | 7.7 |
| CCS(=O)(=O)N1CCN(c2ccc(Nc3ncc(C(N)=O)c(NC4CC4)n3)cc2)CC1 [Cerdulatinib] | 3.5 | 1.5 | 0.3 | 6.8 | 1 | 15.1 |
| CNC(=O)c1cccc(-c2ccc3c(N4CCOC[C@@H]4C)nc(N4CCOC[C@@H]4C)nc3n2)c1 [Vistusertib] | 14.9 | 16.2 | 14.6 | 14.2 | 16.7 | 17.4 |
| CC(C)(C)c1nc(-c2cccc(NS(=O)(=O)c3c(F)cccc3F)c2F)c(-c2ccnc(N)n2)s1 [Dabrafenib] | 0 | 1.1 | 0.8 | 0 | 0.8 | 0 |
| COc1ccc(-c2ccc3ncc4c(c3c2)n(-c2ccc(N3CCNCC3)c(C(F)(F)F)c2)c(=O)n4C)cn1 | 12.8 | 19.3 | 18.2 | 13.9 | 19.5 | 13.3 |
| CC/C(=C(\c1ccccc1)c1ccc(OCCN(C)C)cc1)c1ccccc1 [Tamoxifen] | 7.6 | 3.3 | 3.8 | 8 | 5.1 | 8 |
| COc1cccc2c1C(=O)c1c(O)c3c(c(O)c1C2=O)C[C@@](O)(C(=O)CO)C[C@@H]3O[C@H]1C[C@H](N)[C@H](O)[C@H](C)O1 [Doxorubicin] | 20.4 | 8.1 | 5.8 | 21.7 | 7.9 | 21 |
| C[C@@H]1CCN(C(=O)CC#N)C[C@@H]1N(C)c1ncnc2[nH]ccc12 [Tofacitinib] | 11 | 0.1 | 0 | 0 | 0.1 | 0 |
| C[C@]1(O)C[C@@H](c2nc(-c3ccc4ccc(-c5ccccc5)nc4c3)c3c(N)nccn32)C1 [Linsitinib] | 2.3 | 2.8 | 4.2 | 7.2 | 1.6 | 2.4 |
| Cc1c2oc3c(C)ccc(C(=O)N[C@@H]4C(=O)N[C@H](C(C)C)C(=O)N5CCC[C@H]5C(=O)N(C)CC(=O)N(C)[C@@H](C(C)C)C(=O)O[C@@H]4C)c3nc-2c(C(=O)N[C@@H]2C(=O)N[C@H](C(C)C)C(=O)N3CCC[C@H]3C(=O)N(C)CC(=O)N(C)[C@@H](C(C)C)C(=O)O[C@@H]2C)c(N)c1=O [Dactinomycin] | 44.5 | 26.3 | 26.6 | 42.2 | 27.2 | 43.3 |
| CN(C)CC#Cc1ccc(OCCCc2sc(N3CCc4cccc(C(=O)Nc5nc6ccccc6s5)c4C3)nc2C(=O)O)c(F)c1 | 8.8 | 1.4 | 1.1 | 14.6 | 2.5 | 16.7 |
| CC1(C)OCCn2c1nc1c(N3CCOCC3)nc(-c3cnc(N)nc3)nc12 | 12.2 | 14 | 17.8 | 11.9 | 14.7 | 16.6 |
| C[C@]12C=CC(=O)C=C1CC[C@@H]1[C@@H]2[C@@H](O)C[C@@]2(C)[C@H]1CC[C@]2(O)C(=O)CO [Prednisolone] | 0.3 | 0 | 0.1 | 0 | 0 | 0 |
| CN(C)C/C=C/C(=O)Nc1cc2c(Nc3ccc(F)c(Cl)c3)ncnc2cc1O[C@H]1CCOC1 [Afatinib] | 0 | 0.1 | 0 | 0 | 0 | 0 |
| Cc1nc(NC(=O)N2CCC[C@H]2C(N)=O)sc1-c1ccnc(C(C)(C)C(F)(F)F)c1 [Alpelisib] | 0.3 | 1.5 | 1.8 | 5.6 | 1.5 | 0.7 |
| COc1ccc(Cn2ccc3ccc(C(=O)NO)cc32)cc1 | 5.9 | 2.7 | 4.7 | 9.4 | 3.8 | 9.5 |
| O=C(Nc1cccc(Nc2ncc(Br)c(NCCc3cnc[nH]3)n2)c1)N1CCCC1 | 17 | 7.7 | 7.6 | 16.9 | 8.8 | 17.1 |
| CNC(=O)c1cccc2cc(Oc3ccnc4cc(OCC5(N)CC5)c(OC)cc34)ccc12 [Lucitanib] | 7.5 | 1.3 | 1 | 7.6 | 0.7 | 8.6 |
| Cc1ccc(C(=O)N(CCCN)[C@@H](c2oc3cc(Cl)ccc3c(=O)c2Cc2ccccc2)C(C)C)cc1 | 6.8 | 3 | 4.6 | 6.4 | 3.6 | 8.3 |
| Cc1sc2c(c1C)C(c1ccc(Cl)cc1)=N[C@@H](CC(=O)NCCCCNC(=O)COc1cccc3c1C(=O)N(C1CCC(=O)NC1=O)C3=O)c1nnc(C)n1-2 (some centres not stated) | 20.1 | 1.2 | 2 | 20.2 | 2.3 | 20.3 |

| SMILES | drug sensitivity score (IMR-32 [1]) | drug sensitivity score (SK-N-AS [2]) | drug sensitivity score (SK-N-AS [3]) | drug sensitivity score (IMR-32 [4]) | drug sensitivity score (SK-N-AS [5]) | drug sensitivity score (IMR-32 [6]) |
| --- | --- | --- | --- | --- | --- | --- |
| NC(=O)/C(=C/n1cnc(-c2cc(C(F)(F)F)cc(C(F)(F)F)c2)n1)c1cncnc1 [Eltanexor] | 34.3 | 20.9 | 22.1 | 34.6 | 21.6 | 36.1 |
| Cc1ccc(-c2cc(C(F)(F)F)nn2-c2ccc(S(N)(=O)=O)cc2)cc1 [Celecoxib] | 0 | 0 | 0 | 0 | 0 | 0.7 |
| c1cn2cc(-c3ccc4cn[nH]c4c3)nc(Nc3ccc(N4CCOCC4)cc3)c2n1 [Entospletinib] | 2 | 1.7 | 2.4 | 0 | 2.3 | 3.4 |
| CN1CCN(C2CCN(C(=O)Nc3cc(Oc4ccc(NC(=O)C5(C(=O)Nc6ccc(F)cc6)CC5)c(F)c4)ccn3)CC2)CC1 [Golvatinib] | 0 | 0 | 0 | 1 | 0 | 0 |
| O=C(O)C(=O)O.[NH-][C@@H]1CCCC[C@H]1[NH-].[Pt+2] [Oxaliplatin] | 22.1 | 5.7 | 3.5 | 21.5 | 6 | 28.8 |
| CC/C(=C(\c1ccc(O)cc1)c1ccc(OCCN(C)C)cc1)c1ccccc1 [4-hydroxytamoxifen] | 6.7 | 7 | 7.7 | 11.5 | 7.8 | 10.6 |
| CS(=O)(=O)N1CCN(Cc2cc3nc(-c4cccc5[nH]ncc45)nc(N4CCOCC4)c3s2)CC1 [Pictilisib] | 6.9 | 9.5 | 8.4 | 7 | 9.8 | 8.8 |
| CC(C)n1nc(-c2ccc3oc(N)nc3c2)c2c(N)ncnc21 [Sapanisertib] | 12.2 | 15 | 14.3 | 10.6 | 15.8 | 17.4 |
| CCN(CC)CCCC(C)Nc1ccnc2cc(Cl)ccc12 (configuration not stated) [Chloroquine] | 10 | 7.4 | 7.1 | 9.7 | 8.5 | 12.1 |
| Nc1ccccc1NC(=O)c1ccc(CNC(=O)OCc2cccnc2)cc1 [Entinostat] | 15.4 | 9.4 | 8.5 | 11.9 | 8.8 | 15.8 |
| CNc1nc(Nc2cn(C(C)(C)C#N)nc2C)ncc1C(F)(F)F | 0 | 0 | 0 | 0 | 0 | 0 |
| CCOC(=O)C1=CCCC[C@H]1S(=O)(=O)Nc1ccc(F)cc1Cl [Resatorvid] | 0 | 0 | 0 | 0 | 0 | 0 |
| COc1ccc(-c2nc(N3CCOCC3)c3sc(CN(C)c4ncc(C(=O)NO)cn4)cc3n2)cn1 | 45.8 | 37.8 | 37 | 44.1 | 37.8 | 45.8 |
| CC(C)NC(=O)COc1cccc(-c2nc(Nc3ccc4[nH]ncc4c3)c3ccccc3n2)c1 | 8.4 | 10.9 | 12.4 | 10.1 | 10.9 | 8.4 |
| COc1cc2c(NC3CCN(C(C)C)CC3)nc(N3CCC(F)(F)CC3)nc2cc1OCCCN1CCCC1 | 3.1 | 6.6 | 5.4 | 5.6 | 5.4 | 5.1 |
| O=c1[nH]c(C2CCCN2)nc2c1oc1ccc(Cl)cc12 (configuration not stated) | 9.2 | 0 | 0 | 9.8 | 0 | 9.6 |
| CCc1cnn2c(NCc3ccc[n+]([O-])c3)cc(N3CCCC[C@H]3CCO)nc12 [Dinaciclib] | 27.9 | 19.8 | 19.9 | 30.4 | 20.8 | 30.6 |
| O=C(CCCCCCC(=O)Nc1ccc([C@H]2O[C@@H](CSc3nc(-c4ccccc4)c(-c4ccccc4)o3)C[C@@H](c3ccc(CO)cc3)O2)cc1)NO [Tubacin] | 16.5 | 5.1 | 4.4 | 17.9 | 4.6 | 16.7 |
| O=c1[nH]c(=O)n([C@H]2C[C@H](O)[C@@H](CO)O2)cc1C(F)(F)F [Trifluridine] | 9.5 | 0.3 | 0.2 | 8.8 | 0 | 17.3 |
| CCN1C(=O)CNc2ncc(-c3ccc(-c4nc[nH]n4)nc3C)nc21 | 9.7 | 8.6 | 8.8 | 8.7 | 9.2 | 11.5 |
| CNc1ncc2cc(-c3cc(NC(=O)NCCC(C)(C)C)c(F)cc3C)c(C)nc2n1 | 8.7 | 18.8 | 17.5 | 6.3 | 17.7 | 9.6 |
| Cc1cc(Nc2cc(CN3CCOCC3)c3nc(C)c(Cc4ccc(Cl)cc4F)n3n2)n[nH]1 [Gandotinib] | 18.9 | 5.6 | 5.7 | 18 | 5.9 | 19.7 |
| Cn1c(Nc2ccc(C(F)(F)F)cc2)nc2cc(Oc3ccnc(-c4ncc(C(F)(F)F)[nH]4)c3)ccc21 | 2 | 3.6 | 5.4 | 7.2 | 4.1 | 5.2 |
